Test results reported in PubChem BioAssay AID602293 (National Center for Advancing Translational Sciences (NCATS), 2012).
The campaign covered roughly 1,300 compounds. About 30 (2%) were called active. Inconclusive results (about 10%) are left out. Calls follow the shape of the dose curve; as a rule, active = well fitted inhibition curve with a large enough effect; inconclusive = small, poorly fitted or top-dose-only effect; inactive = flat fitted curve, though single readings scatter. This is one part of the list.

Assay: qHTS for antagonists of the Thyroid Stimulation Hormone Receptor: Hit Validation in HTRF Activity in a Luteinizing Hormone Receptor Cell Line
Conditions: LHR-expressing cell line, cAMP HTRF, antagonist mode; series mostly up to 58 µM; activity change, negative = inhibition: at the top concentration
In short: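 HEK 293 cells stably expressing LH receptor, in DMEM with 10% FCS and 100 uM RO 20-1724, incubated with compound 30 min at room temperature. cAMP measured by competitive HTRF (anti-cAMP cryptate vs cAMP-d2), excitation 330 nm, emissions 615 and 660 nm.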
% is scaled to controls: 0 for no effect and ±100 for the full control effect.

Activity change, negative = inhibition, inactive:
CCN(CC)c1ccc(NC2=C(Cl)C(=O)c3ccccc3C2=O)cc1 -0.455%, O=C(NCc1ccc2c(c1)OCO2)C12CN(Cc3ccccc3)CC1C(c1cccc([N+](=O)[O-])c1)=NO2 (stereo not given) -4.07%, O=C(CSc1ccccn1)Nc1cccc2ccccc12 0.417%, O=C(NC1CCOc2ccccc21)c1ccccn1 (stereo not given) 1.33%, COC(=O)CSc1nc(NCc2ccccc2)nc(N(C)C)n1 -1.27%, Cc1ccc(S(=O)(=O)/N=C2/NC(=O)/C(=C\c3cc(Br)cc(Br)c3O)S2)cc1 -4.27%, O=c1cc(C(F)(F)F)[nH]c2c(C(F)(F)F)cccc12 -3.14%, Cc1c(C=O)c2ccccc2n1CCOc1ccccc1 -0.311%, Cc1ccc(C)c(N2CCN(C(=O)C(Cc3ccccc3)n3cccc3)CC2)c1 (stereo not given) -3.11%, CC(C)C(=O)Nc1c(-c2ccc(Cl)cc2)c(=O)c2ccccc2n1C 0.128%, COc1ccc(NS(=O)(=O)c2cccc(NC(=O)c3ccc(S(=O)(=O)N4CCCCCC4)cc3)c2)cc1 -0.628%, CC(=O)C1=C(O)C(=O)N(c2ccc(O)cc2)C1c1cccc(F)c1 (stereo not given) 2.69%, Cc1ccc(-c2cc(C(=O)Nc3ccncc3)c3ccccc3n2)cc1 -2.05%, O=C1C(Cl)=C(Nc2ccc(O)cc2)C(=O)c2ccccc21 -6.39%, CCn1nc(C)c(NC(=O)/C=C/c2ccc(OC)c(COc3ccc(Br)cc3)c2)c1C -1.1%, C/C(=N\NC(=O)c1nnn(-c2nonc2N)c1-c1ccc(Cl)c(Cl)c1)c1ccncc1 1.95%, Cc1cc(C)cc(OC(C)C(=O)NCCCn2ccnc2)c1 (stereo not given) 3.41%, Cc1cc(NC(=O)CC(C)C)c(=O)n(Cc2cccc(F)c2)c1 3.16%, Cc1c(C(=O)Nc2nccs2)sc2nc(-c3cccs3)cc(C(F)(F)F)c12 -0.565%, O=C(Cn1ncc2c([nH]c3ccccc32)c1=O)NCC1CCN(Cc2ccc(F)cc2)CC1 2.07%, COc1ccccc1N1CCN(C(=O)CCC(=O)N2CCN(c3ccc(F)cc3)CC2)CC1 0.964%, Cc1cc(C)cc(C(=O)NC(CC(N)=O)c2ccc(NCCN3CCCC3)c([N+](=O)[O-])c2)c1 (stereo not given) 3.3%, Cc1cccc2c1NC(=O)C2(c1ccc(O)cc1)c1ccc(O)cc1 -2.97%, COc1ccc(NC(=O)c2ccc(-c3ccccc3)cc2)cc1NS(=O)(=O)c1ccc(F)cc1 -4.16%, Cc1ccc(OCc2nnc(NC(=O)c3cccnc3)s2)cc1 3.67%, CCN(CCCNC(=O)Cn1ncc2c([nH]c3ccc(C)cc32)c1=O)c1cccc(C)c1 1.03%, CC1CCCCN1C(=O)CSCC(=O)Nc1nc(-c2cccs2)cs1 (stereo not given) -0.159%, CC(NC(=O)c1cc(=O)[nH]c2ccccc12)c1ccc(F)cc1F (stereo not given) 3.66%, COc1ccc(-c2csc3ncnc(N4CCN(S(=O)(=O)c5cccs5)CC4)c23)cc1 -2.53%, CCSc1ncc(Cl)c(C(=O)Nc2ccccc2OC)n1 3.38%, Cc1ccc(CSc2nnc(SCC(=O)N/N=C/c3c(C)nn(-c4ccccc4)c3C)s2)cc1 -3.25%, O=S(=O)(Nc1cccnc1)c1ccc(Br)c2ccccc12 -4.2%, Cc1cc(C)n2nc(SCC(=O)Nc3ccccc3C)nc2n1 3.58%, COc1cc2cnc(-c3ccccc3)c(-c3ccc(C#N)cc3)c2cc1OC -1.55%, Cc1ccc(CNS(=O)(=O)c2ccc(CN3C(=O)c4cccnc4C3=O)s2)o1 0.189%, O=C(NCCC1=CCCCC1)C(=O)NCC1OCCCN1S(=O)(=O)c1cc(F)ccc1F (stereo not given) -0.628%, CC1=C(C(=O)OCC(Cl)(Cl)Cl)N2C(=O)C(NC(=O)Cc3ccccc3)C2SC1 (stereo not given) -0.583%, COc1ccc(-c2csc(NC(=O)c3ccccc3NS(=O)(=O)c3ccc(C)cc3)n2)cc1 -1.85%, CN(c1ccc(OCC(=O)Nc2nc3ccccc3s2)cc1)S(=O)(=O)c1ccccc1 -7.48%, Cc1ccc(C2(c3ccc(C)cc3)CC2C(=O)Nc2ccc([N+](=O)[O-])cc2O)cc1 (stereo not given) -0.67%, CN(C)S(=O)(=O)N1CCN(c2ccnc3cc(Cl)ccc23)CC1 -1.73%, COc1cccc(-c2nc(CS(=O)(=O)CC(=O)NC3CCCCCC3)c(C)o2)c1 -2.33%, Cc1cc(C)c(C2=NOC3C4CCC(C4)C23)c(C)c1 (stereo not given) 1.14%, Cc1ccnc(OC(C(=O)O)C(OCCc2ccccc2)(c2ccccc2)c2ccccc2)n1 (stereo not given) 2.55%, Cc1cc(NC(=O)c2cccc(S(=O)(=O)N3CCOCC3)c2)c2ccccc2n1 1.54%, CS(=O)(=O)N1CCc2cc(C(=O)Nc3ccc(COCC(F)(F)F)cc3)ccc21 1.08%, O=S(=O)(/N=C(/Nc1cccc2ccccc12)c1ccccc1)c1cccs1 1.61%, C(=N\N1CCN(Cc2cccc3ccccc23)CC1)/c1cccnc1 -1.18%, O=C(Nc1nnc(S(=O)(=O)N2CCCCCC2)s1)c1cccc(Br)c1 -1.72%, CSCC[C@H](NC(=O)c1ccc(Cl)c(S(=O)(=O)N2CCCC2)c1)c1nc2ccccc2[nH]1 0.364%, Cc1cc(Cl)c(S(=O)(=O)N2CCSCC2)cc1OCC(=O)NC1CCCCC1 -6.33%, CCCCn1c(-c2csc3c2CCCC3)n[nH]c1=S 1.6%, CC1CC(=O)N(c2ccc(C(C)C)cc2)C(=O)C1 2.84%, COc1ccc(NC(=O)Cn2nnc(C(=O)NCc3cccs3)c2N)c(OC)c1 2.52%, O=c1c2nncn2c2cccnc2n1CCNc1ncc(C(F)(F)F)cc1Cl 2.15%, Cc1ccc(Sc2ncccc2NC(=O)c2ccccc2Cl)cc1 2.16%, COc1ccc(CCNC(=O)c2cccc3c2C(=O)N(C2CCCCC2)C3)cc1OC -1.29%, COc1ccc2cc(/C=C3\SC(=S)NC3=O)c(N3CCOCC3)nc2c1 -2.49%, COc1ccc(OC)c(CCNC(=O)Cn2nc(C)c3c(C)n(-c4ccc(C)cc4)nc3c2=O)c1 -2.32%, COc1ccc(CNCc2cc(C)c(OC)cc2C)c(OC)c1 2.83%, CCOc1ccc(-n2c(SCC(=O)NC(C)CC)nc3n[nH]c(C)c3c2=N)cc1 (stereo not given) -2.18%, O=S(=O)(Nc1cccnc1)c1ccc(C2CCCCC2)cc1 1.64%, O=C1S/C(=C\c2ccc(O)c([N+](=O)[O-])c2)C(=O)N1c1ccccc1Cl 0.191%, Cc1ccc(NC(=O)CSc2nn(-c3ccccc3)c(=S)s2)cc1S(=O)(=O)N(C)C -4.13%

Potency, inactive:
O=C(Nc1ccc([N+](=O)[O-])cc1Cl)c1cc(Cl)ccc1O
